# Laboratory results as given in PMC9574860, “Chemical Toolkit for PARK7: Potent, Selective, and High-Throughput” (Journal of Medicinal Chemistry, 2022).
# Out of some 7,900 compounds screened, about 400 (5.1%) showed an effect of 50% or more. The list shows a part of the results.
# Target: Parkinson's disease protein 7 (PARK7/DJ1) (human, UniProt Q99497)
# Assay: primary screen, percent inhibition; read as competition with a fluorescent probe by fluorescence polarization; higher = more effect of the substance
# Conditions: 100 µM
# Summary of the method: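 Fluorescence-polarization probe displacement (JYQ-107, 20 nM final, 2 h) after 2 h preincubation of PARK7 (0.2 μM final) with each fragment at 100 μM final. Read-out ex/em 480/520 nm; remaining activity derived from FP signal loss relative to reference controls.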
# Chain of Parkinson's disease protein 7 (PARK7/DJ1) (Q99497 whole entry, looked up): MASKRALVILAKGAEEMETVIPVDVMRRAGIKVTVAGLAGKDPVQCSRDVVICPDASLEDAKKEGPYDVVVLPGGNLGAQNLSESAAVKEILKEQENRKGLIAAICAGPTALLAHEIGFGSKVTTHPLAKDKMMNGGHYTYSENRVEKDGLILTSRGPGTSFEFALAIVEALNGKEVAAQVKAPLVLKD
row,Structure (SMILES),Inhibition % [%]
1,Cc1ccc(C=CS(=O)(=O)NC2CCS(=O)(=O)C2)cc1 (stereo not drawn),4.34
2,O=C1OCCC1N1CCCCCCC1 (stereo not drawn),4.79
3,C=CC(=O)NC1CC(=O)N(C(C)(C)C)C1 (stereo not drawn),2.35
4,O=C(O)C1CCCN(C(=O)C=Cc2ccc(Cl)s2)C1 (stereo not drawn),13.1
5,O=C(CN1CCSC1=O)Nc1cn[nH]c1,11.7
6,O=C(O)C1CC(O)CN1C(=O)C=Cc1ccc(F)cc1 (stereo not drawn),2.28
7,C1CC(CC2CO2)CO1 (stereo not drawn),9.78
8,O=S(=O)(F)c1ccc(S(=O)(=O)Nc2ccsc2)cc1,27.7
9,C=CC(=O)NCC1OCCc2ccccc21 (stereo not drawn),7.98
10,C=CC(=O)N[C@H]1C[C@H](c2ccccc2Cl)C1,6.65
11,O=Cc1cccc(C(=O)O)c1O,24.2
12,SCc1cccc2cccnc12,5.59
13,CC1(C)OB(C2=CCOC2)OC1(C)C,8.39
14,O=C(CCl)NCCc1c(F)cccc1F,42.8
15,Cc1ccc(C)c(S(=O)(=O)n2ccc(C)n2)c1,15.2
16,CCCN1CCCN(c2ccc(C#N)nc2)CC1,7.34
17,O=C(NC1CCN(C(=O)CCl)CC1)c1ccccc1,18.9
18,O=C(O)C=CC(=O)NCc1cccnc1,2.99
19,Cc1cc(C(=O)Cn2cnc(C#N)n2)c(C)s1,2.94
20,O=C(O)C(S)c1ccccc1 (stereo not drawn),89.9
21,CC(NC(=O)C1CSC(=O)N1)c1csc2ccccc12 (stereo not drawn),4.69
22,CCOc1ccc(S(=O)(=O)n2ccnc2C)c(C)c1C,0.685
23,C=CC(=O)NC1CCCCC1C(C)C (stereo not drawn),1.11
24,CC(C)c1ccc(C(=O)NCc2cc(=O)[nH]c(S)n2)cc1,10.5
25,Cl.Cl.NCC1CCCCN1C(=O)C=Cc1cccnc1 (stereo not drawn),11.4
26,O=C1CN=C(S)N1c1ccccc1F,3.7

row,Structure (SMILES),Inhibition % [%]
1,Cc1nc(C2(NC(=O)CCl)CCCCC2)no1,10.8
2,Cn1ccc(-c2nc(C#N)cs2)n1,-0.539
3,O=C1CN(C(=O)CCl)c2ccccc2N1,56.7
4,C=CC(=O)N1CCN2C(=O)CCC2C1 (stereo not drawn),5.02
5,CCn1nc(-c2nccs2)cc1B1OC(C)(C)C(C)(C)O1,2.75
6,CC(O)(CC1CO1)C1CC1 (stereo not drawn),2.84
7,N#Cc1cccc(N2CCCCC2CC(N)=O)n1 (stereo not drawn),28.3
8,C=CC(=O)N1CCCC(c2ncc(C)s2)C1 (stereo not drawn),7.9
9,C=CC(=O)Nc1cnn(CC(F)F)c1,6.39
10,Cn1c(=O)c2c(nc(Cl)n2CCS(=O)(=O)F)n(C)c1=O,3.18
11,CC1CC1C(=O)N1CCC(CS(=O)(=O)F)C1 (stereo not drawn),96.8
12,CC1CN(CCCNC(=O)CCl)CC(C)O1.Cl (stereo not drawn),15.6
13,CC(C)CNC(=O)c1ccccc1NC(=O)CCl,8.8
14,O=C(CCl)c1ccc(F)cc1,32.3
15,O=C1CC(CC(=O)N2CC3C4CCC(C4)C3C2)CO1 (stereo not drawn),4.62
16,COc1ccccc1Cn1cnc(C#N)n1,-1.08
17,C=CC(=O)N1CCN(C2CC2)c2c(Cl)cccc21,2.34
18,Cc1csc(N(C(=O)CCl)c2ccccc2)n1,87.3
19,N#Cc1ncn(CC(N)=O)n1,8.69
20,CC1CN(C(=O)CCl)CC(C)O1 (stereo not drawn),19.8
21,Cc1ccc(C(C)NC(=O)Cn2cnnc2C#N)cc1C (stereo not drawn),6.52
22,C=CC(=O)N1CCn2c(cc3cc(Cl)ccc32)C1,14.2
23,CC1(C)OB(c2ccc(CN3CCCCC3)cc2)OC1(C)C,2.94
24,CN(Cc1ccc(OC(F)F)cc1)C(=O)CCl,51.1
25,N#CC(=Cc1ccc(F)c(F)c1)C(=O)NC1CC1,8.96
26,OC1(C2CO2)CCCC1 (stereo not drawn),3.59

row,Structure (SMILES),Inhibition % [%]
1,Cn1nccc1C=CC(=O)N1CCC(C)(C(=O)O)C1 (stereo not drawn),1.54
2,Cc1ccc(C2=NN(C(=O)CCl)C(c3ccco3)C2)o1 (stereo not drawn),11.4
3,O=S(=O)(F)c1ccccc1Br,44.3
4,CCCc1cc(=O)[nH]c(S)n1,8.86
5,O=C(NCCCC1CCCCC1O)c1cccnc1S (stereo not drawn),6.16
6,C=CC(=O)NCC12CCC(CC1)C2,5.55
7,Cc1ccc(C(NC(=O)CCl)C2CC2)cc1 (stereo not drawn),1.1
8,C=CC(=O)N(Cc1ccccc1Cl)C1COC1,29.3
9,CC(CCl)Cn1ccnc1.Cl (stereo not drawn),6.72
10,Cc1coc(B2OC(C)(C)C(C)(C)O2)c1,4.69
11,CS(=O)(=O)O[C@H]1CC[C@H](c2ccccc2)CC1,11.3
12,CC(C)(C)c1nc(C#N)c(N2CCC(C(N)=O)CC2)o1,11.7
13,C=CC(=O)NC1CC(C(C)(C)C)C1 (stereo not drawn),14
14,Cc1c(B2OC(C)(C)C(C)(C)O2)ccc2ccccc12,3.03
15,C=CC(=O)NCC1(C)CCOC1 (stereo not drawn),9.38
16,N#CSCc1nc2ccccc2[nH]1,24.5
17,CC(=O)NCCc1cc(C(=O)CCl)ccc1F,83.3
18,O=S(=O)(c1cc(Cl)ccc1Cl)n1ccnc1,7.81
19,Cl.O=C(CCl)Nc1ncc[nH]1,1.78
20,O=S(=O)(F)c1ccc(F)cc1,2.62
21,Cc1cc(C(=O)CCl)c(C)n1-c1ncn[nH]1,60
22,O=C(NCC1(CCO)CCC1)c1cccnc1S,5.07
23,N#Cc1ncn(-c2ncc(C(F)(F)F)cc2Cl)n1,6.83
24,Cc1nn(C)c2sc(B3OC(C)(C)C(C)(C)O3)cc12,1.59
25,N#CC(c1ccccc1)N1CCN(C(=O)CCl)CC1 (stereo not drawn),18.3
26,O=C(NCc1ccc2c(c1)OCO2)Oc1ccccc1,-3.7

row,Structure (SMILES),Inhibition % [%]
1,C=CC(=O)Nc1ccc(C#N)cc1,4.08
2,COC(=O)c1ccnc(C#N)c1,7.37
3,CC1CN(c2oc(-c3ccccc3)nc2C#N)CC(C)O1 (stereo not drawn),2.19
4,C=CC(=O)N(C)C1CCOCC1OC (stereo not drawn),6.6
5,N#CC(=Cc1ccc(F)c(F)c1)C(N)=O,2.39
6,O=C(CCCl)N1CCc2ccccc2C1,8.5
7,O=C(CCCl)Nc1cccc2ccccc12,5.12
8,C=CC(=O)NCc1ccc2c(c1)C(=O)NCC2,29.5
9,N#Cc1nc(-c2ccc(Cl)cc2)oc1NC1CC1,4.36
10,CCc1ccc(OC)c(S(=O)(=O)n2cnc(C)c2)c1,5
11,C=CC(=O)N1CCC(c2cccc(C(F)(F)F)c2)C1 (stereo not drawn),10.4
12,CC1(C)CC(NC2CCOC2=O)C(C)(C)O1 (stereo not drawn),2.25
13,CC1(C)OB(c2cccc3c2CCOC3)OC1(C)C,4.59
14,C=CCC(CO)Nc1ccc(C#N)nc1 (stereo not drawn),6.02
15,N#CC(=Cc1ccc(Cl)cc1)C(N)=O,7.63
16,C=CC(=O)Nc1cc(N)ccc1F,32.2
17,CCNc1nc(S)nc2ccccc12,5.07
18,N#Cc1cc(N2CCNCC2)ccn1,6.56
19,OB(O)c1cc(F)ccc1OCC1CCOCC1,-0.184
20,CC(NC(=O)Cn1cnc(C#N)n1)c1ccccc1 (stereo not drawn),1.11
21,CC1CC(N2CCn3c(nnc3C3CC3)C2)C(=O)O1 (stereo not drawn),18
22,O=C(CCc1ccc(S(=O)(=O)F)cc1)NC1CCCCNC1=O (stereo not drawn),7.49
23,C=CC(=O)N(Cc1cccc(C)n1)Cc1cccc(C)n1.O=C(O)C(F)(F)F,8
24,Cc1ccc(C=CS(=O)(=O)N2CCCC(C(N)=O)C2)cc1 (stereo not drawn),8
25,N#Cc1ncn(CC(=O)c2ccc(Cl)cc2)n1,2.43
26,CNc1ccc(C#N)nc1,5.44

row,Structure (SMILES),Inhibition % [%]
1,CC(=O)NCc1ccc(S(=O)(=O)F)cc1,32.8
2,Cc1nn(C)c(C)c1C1CCCN1C1CCOC1=O (stereo not drawn),4.25
3,C=CC(=O)NC1CCN(OC)CC1,11.7
4,Cc1ccc(CCNc2ccc(C#N)nc2)cn1,2.57
5,C=CC(=O)N[C@@H]1C[C@H]1C(C)C (racemic),6.51
6,N#CSc1ccc(NC(=O)CCl)c(F)c1,72
7,CC(C)(C)C1CCC2OC2C1 (stereo not drawn),7.81
8,C=CC(=O)NC(c1ncc(C)s1)C1CC1 (stereo not drawn),8.08
9,C=CC(=O)N1C[C@H]2CC=CC[C@H]2C1,8.62
10,N#CN(CC(=O)N1CCOCC1)c1ccccc1,2.66
11,N#CC(=Cc1ccccc1)C(=O)NCC1CCCO1 (stereo not drawn),17.8
12,NS(=O)(=O)c1ccc(Cl)c(NC(=O)CCl)c1,6.59
13,C=CC(=O)N1CCC(Cn2cccn2)CC1,7.7
14,O=C(NCc1ccc(Cl)cc1)n1ccnc1,-1.68
15,COC(=O)c1cc(Cl)ccc1B1OC(C)(C)C(C)(C)O1,9.49
16,C=CC(=O)NCC1CC1(C)c1cccs1 (stereo not drawn),8.95
17,CC(=O)n1ncc2ccc(B3OC(C)(C)C(C)(C)O3)cc21,4.96
18,CC(C)(C)C(=O)N1CCCN(c2ccc(C#N)nc2)CC1,13.1
19,CC1C(=O)Nc2ccc(C(=O)CCl)cc21 (stereo not drawn),85.9
20,Cc1nc2c([nH]1)CCC(C(=O)NC1CC(C)(C)OC1=O)C2 (stereo not drawn),8.26
21,OB(O)c1ccc(OCC(F)(F)F)cc1F,13
22,COc1cc(S(=O)(=O)F)c(Cl)cc1C(=O)O,97.8
